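All cell lines were grown in 96-well plates and treated with compound for 48 hours. GI50 marks 50% less growth. TGI is the concentration that stops growth completely.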
What follows are molecules tested on NCI-H322M lung (assay: NCI tumour cell line growth inhibition, 48 h).

| SMILES | TGI | GI50 |
| --- | --- | --- |
| Cc1ccc(C)c(NC(=O)/C(=N\NC(N)=S)C(C#N)c2ccccc2)c1 (configuration not stated) | > 100 µM | – |
| Cn1cc(NC(=O)c2cc(NC(=O)CCCCCC(=O)Nc3cc(C(=O)Nc4cc(C(=O)NCCC(=N)N)n(C)c4)n(C)c3)cn2C)cc1C(=O)NCCC(=N)N | > 100 µM | – |
| Cc1ccc2[nH]c(=O)c(-c3cnc(=O)[nH]n3)c(O)c2c1 | > 100 µM | – |
| ClCCn1cnc2c(SCc3ccccc3)ncnc21 | 22.2 µM | 1.78 µM |
| COc1cc2c(cc1OCCCC(=O)Nc1cc(C(=O)Nc3cc(C(=O)NCCCN(C)C)n(C)n3)n(C)n1)N=CC1CCCN1C2=O (configuration not stated) | > 100 µM | – |
| CC[C@@]1(OC(=O)CCC(=O)O)C(=O)OCc2c1cc1n(c2=O)Cc2cc3ccccc3nc2-1 | 2.45 µM | – |
| Nc1ncnc2c1ncn2C1OC(C(=O)O)C(O)C1O (configuration not stated) | > 100 µM | – |
| COc1ccc(/C=[N+](\[O-])[C@H](COCc2ccccc2)c2ccccc2)cc1 | > 100 µM | – |
| COC1CCC(OC2CC(C3(C)CCC4(CC(O)C(C)C(C(C)/C=C(\C)C(=O)C(C)CC(C)C(=O)O)O4)O3)OC3(OC(C4OC(O)(CO)C(C)CC4C)CC3C)C2C)OC1C (configuration not stated) | 3.68 µM | – |
| OC1CCC(Oc2cccc3cnc(Nc4ccc5nc[nH]c5c4)nc23)CC1 (configuration not stated) | 3.61 µM | 0.227 µM |
